Experimental findings from article PMC7718735 are described below.

These are yes or no findings as the source states them, for the method shown. Some binding calls cover weakened binding; strength is not graded here.

The chains are these.
T1: Cut11 MYTH bait (wild type) (S. pombe) (UniProt O13961)
T1 sequence: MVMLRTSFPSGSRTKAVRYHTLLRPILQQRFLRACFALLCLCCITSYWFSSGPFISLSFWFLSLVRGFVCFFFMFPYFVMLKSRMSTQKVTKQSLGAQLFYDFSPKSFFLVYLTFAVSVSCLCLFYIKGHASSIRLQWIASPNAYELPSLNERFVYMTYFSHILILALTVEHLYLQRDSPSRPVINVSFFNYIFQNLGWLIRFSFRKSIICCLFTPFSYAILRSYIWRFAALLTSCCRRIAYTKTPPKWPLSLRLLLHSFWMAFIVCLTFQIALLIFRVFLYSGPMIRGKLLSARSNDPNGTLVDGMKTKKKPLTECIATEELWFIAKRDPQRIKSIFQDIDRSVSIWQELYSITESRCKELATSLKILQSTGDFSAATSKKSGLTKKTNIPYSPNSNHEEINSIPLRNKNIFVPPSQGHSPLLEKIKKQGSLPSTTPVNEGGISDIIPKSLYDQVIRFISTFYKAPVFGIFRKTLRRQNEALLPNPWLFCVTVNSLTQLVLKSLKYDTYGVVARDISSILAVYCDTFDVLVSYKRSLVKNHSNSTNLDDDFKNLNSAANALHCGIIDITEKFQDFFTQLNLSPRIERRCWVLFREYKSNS

T2: Lem2 MYTH bait (S. pombe) (UniProt Q10109)
T2 sequence: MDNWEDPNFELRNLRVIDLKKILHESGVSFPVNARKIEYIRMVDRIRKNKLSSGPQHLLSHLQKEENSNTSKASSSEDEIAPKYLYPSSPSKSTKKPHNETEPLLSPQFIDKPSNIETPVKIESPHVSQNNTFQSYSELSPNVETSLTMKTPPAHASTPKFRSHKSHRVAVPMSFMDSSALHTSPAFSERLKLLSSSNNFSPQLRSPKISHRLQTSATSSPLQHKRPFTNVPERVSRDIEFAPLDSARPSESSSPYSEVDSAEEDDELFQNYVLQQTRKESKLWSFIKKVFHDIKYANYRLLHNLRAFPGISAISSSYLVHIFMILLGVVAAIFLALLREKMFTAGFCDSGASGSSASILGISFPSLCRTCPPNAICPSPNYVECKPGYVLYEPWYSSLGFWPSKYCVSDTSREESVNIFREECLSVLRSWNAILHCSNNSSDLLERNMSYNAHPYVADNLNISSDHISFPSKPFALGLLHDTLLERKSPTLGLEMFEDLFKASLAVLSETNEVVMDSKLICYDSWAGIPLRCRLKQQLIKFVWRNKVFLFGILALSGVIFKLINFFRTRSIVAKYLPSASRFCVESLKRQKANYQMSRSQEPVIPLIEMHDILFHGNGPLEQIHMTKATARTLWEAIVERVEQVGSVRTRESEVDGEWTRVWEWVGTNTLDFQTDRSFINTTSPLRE

B1: Nup45 MYTH prey (protein, UniProt Q09793 1-425)
chain: MFGLNKTPSFGSTGTQNQNTGTSAGTGLFSSNTFGNNTQANTPASTGFGGVTGGAFGQTKPQTGGSLFGNKPNATSTTPGLNLFGQNPQAAPGGSLFGASTTKPQAPGGLFNQNQTQAQPAQAAPTGGLFGLSGQNQTQSQTQPAQANTSLFGQSNIGTTGGLFDQNRPNTSTFGQFSTQPASAGLFGQSTQPSGSTGFGLSNNTQTTPFFSAAQQQPSTTQLPSNPAINATTRYSSLNANTQKFLDDLDKEIFSQIQLAEELQTKLGTVSELVESVPNDVAEVQRRLSSVSTALLIDSDEIETTKRVVDEDTSNARISSRILDVFKTPGATYPFASNDPLMNYFEQFTENAKKRTDLYAATIGELEQHLEQVETTPQNNSPEALLKTIKEEHKLFMALSNRFAQVHDEVKRLQVNTSTSLPFIS
B2: Nup44 MYTH prey (protein, UniProt O42963 1-403)
chain: MAFSFGQQGSSIKAPSIGSTGVFGQSNTTKPTAPFGSGSIFGSTNTNVGAGGPTGSSSAPPFGNSIFGKTQQQPTTSFSNTTTNAPQSTVFGQNAASRTGNSNTQPLFSWSTVNNPTKPVDETNATIPSSLLLSSGISPNATVSNAQYGPAQPPSVEEQVQKILNAWNLNHPDCAFQRFFYNKVPVEQAALYVKPPNYNQQKWDEAVANRPSNSVVPVLAVGFPDVQKRINMQIQQVNTYRIRMREIVETLGRLSNKHDLDFSIKLAEAKNRHVRLSERILRLAIKVHVLRHRGYALKPNEEELRKKLDDLTKSLNNPEIFGRLNEIWARITLIFEGEKISEDQRSNLAKGVVDWRKNSDQLEVITDVLRDHQVGLSYVVKLMQEDLATLNKQLTEHVPQSQK
B3: Sey1 MYTH prey (protein, UniProt Q9UTE0 1-762)
chain: MSTASNRVSTQIVDEHKQFNNELPKFMQSVGLLDAGFNYHVVAVLGSQSTGKSTLLNNLFGTSFSVMDASKRQQTTKGIWLSKANNSPILVMDVEGTDGRERGEDQDFERKSALFSISTSEVIIVNMWENQVGLYQGSNMALLKTVLEVNLQLFHNKKERCLLQFVIRDFLGNTSMENLADTIMTDLNNIWASLSKPEGFENSVINDFFDVGFTGLPHKILCSDAFSEAVDSLRERFVDNNNSDYIFNVSYHKKIPADGFSLYTREIWDTIENNKDLDLPTQQQLLAQYRCDEIITEVMEPFSTACTILQKEFLPGNLCKDLPTKLLNMFETVIEAYDRQASRYNVHIYQKKKQELIASVDSHLYVFFQAQLNALHKELIKSFFDASNEFPSDTPFKESSSIKINELVNKMREEGESLSLPHVHWDVDPFILKLSEELTQNSETLCKEKLKEKLEELFTGFEFEVSEAVEVAFQKLSHNVWDTLLNEFLAAQNTTIEKIKNIVPFYVDIDDTKTTEEYIINFKKNSWLFFRKKIDSEMSEVLLQQRLRVYFEELFRYDSDGMPKLWKKSGTIDRDYRESLTKTLDLINVLASIKVSDGNYPDLNVDIKTLEPEYTSPASFFTILNRRRVSDISVNFKRSADLIFMDCKRSVINTTTRIPPYFWVLLIVLGWNEFMAILRNPFVFMILMFGGTVVYGLYISGLIWPAKMVLERATNNLVDLATDRFSNTYQEQVQQRAMQRTEKSGSPVASADDAEAEKTALS
B4: Yop1 MYTH prey (protein, UniProt Q9UU91 1-182)
chain: MSFQVRVKQNMQDLDNRLAAFPQLNSLEKNFGVSKLYVFLTAAGIYALFLFLNWGGFLLTNLLAFAMPAFFSINAIETTNKADDTQWLTYYLVTSFLNVIEYWSQLILYYVPVYWLLKAIFLIWLALPKFNGATIIYRHLIRPYITPHVIRICKSVSRQNAAPAPTASSFAHTTATDIPPSI
B5: Nsp1 MYTH prey (protein, UniProt Q10168 1-598)
chain: MSFNPGNNQNSGFSFGKPAQPNSAAQGAATPAATGLFGNTNNNTSSTAPSGGLFGSNNASNTSAPSTFSFGKAATTGNSTNASTSSPFSFGSTNTNNTAGAKPLFGGLGSTGSANSTGDKSKNTASSATGAATTNPSGSTFNFGSSNNSFNFGKPASTTNTTTPAAASTGSLFGKPAATGTTSNAPPASSTSTTPATGSGGFSFGKPASLGSTNNASTSTTANSGFSFGKPATTSAPGSNTTVTPSSSITGTNDSKPAASNTGSAPTTGFSFGKPAGQAASTATDKGTTTTSSAGTGFSFGKPATTEDTNKPTAPNSAFTKPATSTGDNKPTFSFGNTSKPTENTSTTATSAPPLSNNTKPAEGANQTSSGFSFGKPATDTTTSTSKTGPLFGNKPADPSAKPGATASTTPSEPPPSSIKHKTLQEILNKWSTDLTTQTEVFNKLCDQVSDWDRTLVDNGALISKLYTETVEAEQMSNRIDDGLEYVSSSQQELFKLLDSYETQLETFDGRATSALNVERERAFGVADDILSRLDRLGEDLGTVINQMNDFSKPDDSISEIVKVLNAQLASLGWVENRIFQMEEKLDTIKKKNSDVLF
B6: Dlc1 MYTH prey (protein, UniProt Q9UTS6 1-111)
chain: MSCPIDSKKLEEICLEAAQPVLKASEYDGDKTAEMNQSVIYAVLNALNKETQSYKWIVSSTLVQKLPEDHPSRGVHAAHAACWNCEKDGMTTIKESGEAIDVVLSIMWISI
B7: Yip1 (SPCC61.04c) MYTH prey (protein, UniProt O94348 1-227)
chain: MAYYNNPANLQYYDYSYTADNSFNTQSRAAGFYDEPLHEPLSQGWLAAFSTSGYPGEPSLLEELEINFGHIKQKTTHVLNPFKHVDVHIMDDTDMAGPILFCLLFSTFLSLHGRSHFGYIYGIALLGSLSLHFVLRLMSAKNLFFTRTVSVLGYSLLPLVVIAFFKNIFTFNGIAGYALAALACIWCTYAASAMFVGILQVNNMRFLVAYPIALFYGVFAVITVFSK
B8: Ely5 MYTH prey (protein, UniProt O94384 1-298)
chain: MLKMEDDQFERFVGLFSMKDEDFPYNSQVTNEIQTFRKQQVDSQLFFDVLLSFIEGIEDPSSLYPPKSIDDLQSLFMIIENSNIDELKQQCFYYYLLKDWEKSETYSEQVSLPKNYQHLMDGYYYLDRLKFEEAINHLLLPDVLPNFPDKIIETLYSNEKYKFLIRFVSFVGPPLDTFRKEECYALSLVRYSFLASYHYMKKCTKPLVLWEEMIQLILESNDTQSCKLIVSLPLSQEECEVLFSLLRSKKEPLYLNTLLALLVESNNIQEALELSSNSTHLQKSAVNTYLHKLNSLSS
B9: Rtn1 MYTH prey (protein, UniProt P53694 1-308)
chain: MSEQHSLNPFESGSVTASDVAAAKSGAEDLVNTLTAHTVHPSTELPSATSFPSALPNSENPVIQNISSSSSEPHHTSQSTPGETSSPVCPVSGAHGGADKKCPALEAGCPFTNTTKQNVDPEISNALWSVLTWKNTSCSFSTLMSILALVYVPSWINLPRLFFRTFRYVFLITSIIEFGGLFASNGKRGVLSHFRSSYITCDSKALDRIVNSIVDIFNVMLIQFQRILFAESPILTFTASVAAFIEFFLSGFLSYKSLFVWNVLFAFILPRLYVCNERSIKHLVASLERSGDKLKKQATETINTTVNK
B10: Dlc2 MYTH prey (protein, UniProt Q9UR05 1-85)
chain: MAVIKAVDMSEKMQQEAIHAAVQAMEKFTIEKDIAAFIKREFDKKFSPTWHCIVGRNFGSFVTHESRHFIYFYLGTVAFLLFKSG
B11: Bqt4 MYTH prey (protein, UniProt O60158 1-432)
chain: MTENEKSRSLPAERNPLYKDDTLDHTPLIPKCRAQVIEFPDGPATFVRLKCTNPESKVPHFLMRMAKDSSISATSMFRSAFPKATQEEEDLEMRWIRDNLNPIEDKRVAGLWVPPADALALAKDYSMTPFINALLEASSTPSTYATPSRPTAQKSETSEGEPESSTSATTTSVARRTRQRLAEHLENSKKTILQHDNKEEDKEIHSEENETKDEIKSEKKEPEIKKQEGGSSTEKVGQPSSSDDKAKGSTSKDQPSEEEEKTSDIQDRKIKTPIKPSLLGKIRSSVNKGMTDVASQVNRGMTDVASQVNKGVNGVASQVNKGMNGVANQVNKGVTGVASQVRKPVGKLEKKFENLEKSIGDTLKSSIRSSPKSKKRSREDFEENEDYNAMVPVKRSRITKLESEVYYEKRKVRALGGIAIGLGVGAILPFLF
B12: Bqt3 MYTH prey (protein, UniProt O74510 1-255)
chain: MSGSKCCSSSNTIKVSIYLFLHTLTYGLLNYHLNPRLLASTGVVESDIPYWMSYLSIIMHVGQSLLLQKFNLGYGWLLLTKYPVYVLLSTYYLTPLSQIAWAFIIDAISLLVARCFSRANPIKCSNQVNTQYSVSFLFTIMASVLISVLNYISQKIFLNGLILGNSHNVVTSLVAPPLPLQYLAHVPIGYVIQRVVFSERPIPQSLFLMIFLTLWNCFIPYSILFSMNWSAMFQVVGAYLSQIWIITFICWALSL

For the first test, the target named is T1, Cut11 MYTH bait (wild type) (S. pombe). Nature of the test: two-hybrid; split-ubiquitin membrane yeast two-hybrid (MYTH) in S. cerevisiae; bait-Cub-LexA-VP16 strains mated with the arrayed Nub prey library, diploids spotted in quadruplicate on SD-leu-trp-ade-his with 25 mM 3-AT, imaged every 24 hr for 4 days; positive by a colony density cutoff.
B1: the binding result is listed as “no binding”.

Consider B2, for which the binding result is listed as “no binding”.

Regarding B3, the binding entry is given as “binds”.

As to B4, the binding entry was “binds”.

Take B5: the binding entry is “no binding”.

Take B6: the binding entry is reported as “binds”.

B7: the binding result is given as “binds”.

Regarding B8, the binding entry is reported as “no binding”.

On to B9, for which the binding result is recorded as “binds”.

With B10, the binding entry is “binds”.

Another test has as its target T2, Lem2 MYTH bait (S. pombe). The description is as above.
On to B11, for which the binding entry is on record as “binds”.

B12: the binding result was “binds”.
